Assay results: the supplement of paper PMC8748497
“And” between values parts separate entries of the source, which are not always exact repeats. Equal values may be shown once. This is one part of the list.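 The calls were made as follows: active = fold change of at least 2 over DMSO control; inactive = below 2-fold.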 Repeats are few or missing, and single values can be far off.

Each compound was assayed on HEK293 ARE/NRF2-luciferase reporter (assay: ARE/NRF2 luciferase reporter activity, fold change over DMSO control; higher = stronger NRF2/ARE reporter activation). Settings: 10 µM; 24 h.

SMILES | ARE/NRF2 luciferase reporter activity
CC1(O)CCC(C(C)(C)O)CC1 (centres undefined) | inactive: 0.891
C=C(CC)C(=O)c1ccc(OCC(=O)O)c(Cl)c1Cl | active: 2.67
CCCNC(=O)NS(=O)(=O)c1ccc(Cl)cc1 | inactive: 0.921
CC(C)C(=O)Nc1ccc([N+](=O)[O-])c(C(F)(F)F)c1 | inactive: 1.11
CCOC(=O)[C@H](CCc1ccccc1)N[C@@H](C)C(=O)N(CC(=O)O)C1Cc2ccccc2C1 | inactive: 0.965
CC(=O)N1CCN(c2ccc(OCC3COC(Cn4ccnc4)(c4ccc(Cl)cc4Cl)O3)cc2)CC1 (centres undefined) | inactive: 0.117
CO[C@@]1(NC(=O)C(C(=O)O)c2ccc(O)cc2)C(=O)N2C(C(=O)O)=C(CSc3nnnn3C)CO[C@@H]21 (some centres undefined) | inactive: 1.12
O=C(CCCl)NCc1ccccc1 | inactive: 1.02
O=C(O)c1cc(=O)c2cccc(O)c2[nH]1 | inactive: 0.892
N[C@@H](CSSC[C@H](N)C(=O)O)C(=O)O | inactive: 0.838
O=C1OC(=O)[C@H]2[C@@H]1[C@@H]1CC[C@H]2O1 | inactive: 0.721
CC1(C)O[C@@H]2C[C@H]3[C@@H]4C[C@H](F)C5=CC(=O)C=C[C@]5(C)[C@H]4[C@@H](O)C[C@]3(C)[C@]2(C(=O)CO)O1 | inactive: 1.12
N=C(N)NC(=N)NCCc1ccccc1 | inactive: 1.06
OC(CNCC(O)C1CCc2cc(F)ccc2O1)C1CCc2cc(F)ccc2O1 (centres undefined) | inactive: 0.917
CCN(CC)CCNC(=O)c1ccc(N)cc1 | inactive: 0.903
CO[C@H]1/C=C/O[C@@]2(C)Oc3c(C)c(O)c4c(O)c(c5c(nc6cc(C)ccn65)c4c3C2=O)NC(=O)/C(C)=C\C=C\[C@H](C)[C@H](O)[C@@H](C)[C@@H](O)[C@@H](C)[C@H](OC(C)=O)[C@@H]1C | inactive: 1.38
CCOC(=O)C1=C[C@@H](OC(CC)CC)[C@H](NC(C)=O)[C@@H](N)C1 | inactive: 0.802
N=C(N)N | inactive: 0.869 and inactive: 0.861
CC(=O)OCC(=O)[C@@]1(O)CC[C@H]2[C@@H]3CCC4=CC(=O)CC[C@]4(C)[C@H]3C(=O)C[C@@]21C | inactive: 0.87
COc1cc(O)c2c(=O)c(O)c(-c3ccccc3)oc2c1 | inactive: 1.06

SMILES | ARE/NRF2 luciferase reporter activity
CC(=O)Oc1cc(OC(C)=O)c2c(c1)O[C@H](c1ccc(OC(C)=O)c(OC(C)=O)c1)[C@@H](OC(C)=O)C2 | inactive: 1.66
CC(=O)NC(Cc1ccccc1)C(=O)O (centres undefined) | inactive: 0.894
CC(=O)Oc1c[nH]c2ccccc12 | active: 2.17
C[C@H](CS)C(=O)N1CCC[C@H]1C(=O)O | inactive: 0.928
CN(C)CCCN1c2ccccc2Sc2ccc(C(F)(F)F)cc21 | inactive: 0.0269
O=C(O)c1ccccc1C(=O)Nc1ccc(S(=O)(=O)Nc2nccs2)cc1 | inactive: 1.02
CC1(C)C(=O)C=CC2(C)C1C=CC1(C)C2CCC2(C)C(c3ccoc3)OC(=O)C3OC312 (centres undefined) | inactive: 0.309
CC#CCn1c(N2CCC[C@@H](N)C2)nc2c1c(=O)n(Cc1nc(C)c3ccccc3n1)c(=O)n2C | inactive: 0.986
O=C(CCCN1CCC(O)(c2ccc(Cl)cc2)CC1)c1ccc(F)cc1 | inactive: 0.956
COc1ccc2c(=O)cc(-c3ccccc3)oc2c1OC | active: 2.12
O=C(C=Cc1ccc(O)cc1)c1ccccc1O | active: 7.85
S=c1ccss1 | inactive: 1.78
COc1ccc(C(=O)c2ccc(O)cc2)c(O)c1O | inactive: 1.3
O=C(O)CCC(=O)OC[C@@H](NC(=O)C(Cl)Cl)[C@H](O)c1ccc([N+](=O)[O-])cc1 | inactive: 1.12
CC(C)(C)NCC(O)c1ccc(O)c(CO)c1 (centres undefined) | inactive: 0.909
COc1cc(C/C=C/c2ccccc2)c(OC)cc1O | inactive: 1.56
COc1ccc(-n2nc(CCC(=O)N(C)O)cc2-c2ccc(Cl)cc2)cc1 | inactive: 0.242
CC(=O)OCC(=O)[C@@]1(O)[C@H](C)C[C@H]2[C@@H]3CCC4=CC(=O)C=C[C@]4(C)[C@@]3(F)[C@@H](O)C[C@@]21C | inactive: 1.25
NS(=O)(=O)c1cc2c(cc1Cl)NC(C1CC3C=CC1C3)NS2(=O)=O (centres undefined) | inactive: 0.938
